# Assay results: PubChem BioAssay (Tox21)
# Several values for one entry are separate records, joined by “and”; a condition that tells them apart may be missing. Equal values may be shown once. This list was built around the results that the source calls inconclusive (neither active nor inactive); the mix of calls is not that of the screen. For some assays here: Potencies of inconclusive entries are doubtful fits and often do not repeat. Activity calls are given as the source filed them. Unless noted, calls follow the shape of the dose curve; as a rule, active = well fitted curve in the direction sought with a large enough effect in the repeat runs; inconclusive = weak or mixed curves; inactive = no such curve, though single readings can be large; an effect the other way counts as inactive or inconclusive.
# Columns and labels:
# [1] = qHTS RealTime-Glo MT Cell Viability Assay in HepG2 cells - 0 hour (AID 1224889); also: nearly all actives have a fitted effect of over 50% in size; also: potency is read from the fitted curve at half-maximal effect; as to activity change, negative = cytotoxicity: % is scaled to controls: 0 for no effect and ±100 for the full control effect
# Method in brief: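 HepG2 cells (600/well) were dispensed with RealTime-Glo reagents, incubated 5 h at 37 °C, then treated with compounds in DMSO for up to 40 h. Nonlytic NanoLuc luminescence reflecting viable cells was read at each stated time point.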
# [2] = qHTS assay to identify small molecule antagonists of the estrogen receptor alpha (ER-alpha) signaling pathway using the BG1 cell line in the presence of 0.1 nM 17-beta-estradiol - cell viability counter screen (AID 1259241); also: potency is read from the fitted curve at half-maximal effect; nearly all actives have a fitted effect of over 40% in size
# Method in brief: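 The cell line endogenously expresses full-length ER-alpha and carries four EREs driving luciferase. Cells are cultured 5 days hormone-free, treated 22 hr with compounds and 0.1 nM estradiol, then viability is read by fluorescence.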
# [3] = qHTS assay to identify small molecule antagonists of the androgen receptor (AR) signaling pathway using the MDA cell line in the presence of 0.5 nM R1881 - cell viability counter screen (AID 1259242); also: nearly all actives have a fitted effect of over 45% in size; also: potency is read from the fitted curve at half-maximal effect
# Method in brief: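 Live-cell protease activity was measured by CellTiter-Fluor fluorescence after 30 min. Before that, MDA-kb2 MMTV-luciferase cells had 16 hr at 37C without CO2, exposed to test compounds and 0.5 nM R1881 final.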
# [4] = qHTS assay to identify small molecule agonists of the sonic hedgehog signaling (Shh) pathway - cell viability counter screen (AID 1259366); also: potency is read from the fitted curve at half-maximal effect; nearly all actives have a fitted effect of over 50% in size
# Method in brief: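 Viability measured fluorometrically (CellTiter-Fluor, 1hr, 37C) in 3T3 Gli1-Luc reporter cells after 23hr compound exposure within a 24hr incubation at 37C/5% CO2.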
# [5] = qHTS assay to identify small molecule antagonists of the sonic hedgehog signaling (Shh) pathway - cell viability counter screen (AID 1259367); also: potency is read from the fitted curve at half-maximal effect; nearly all actives have a fitted effect of over 55% in size
# Method in brief: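 Cytotoxicity was assessed in parallel with Shh reporter activity by measuring live-cell protease fluorescence (CellTiter-Fluor) in NIH/3T3 cells stably carrying Gli1-Luc, treated with compound under conditioned medium stimulation for 23 hr plus 1 hr reagent incubation.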
# [6] = qHTS assay to identify small molecule antagonists of the sonic hedgehog signaling (Shh) pathway (AID 1259369; calls by dose curve; also: nearly all actives have a fitted effect of over 45% in size; also: potency is read from the fitted curve at half-maximal effect)
# Method in brief: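 Antagonist mode: compound added to 3T3 Gli1-Luc cells followed by conditioned-medium stimulation, 24 h at 37 C, 5% CO2. Inhibition taken as loss of Gli1-driven luciferase luminescence.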
# [7] = A CellTox Green Cytotoxicity Assay to monitor cytotoxicity in HEK293 cells - 16 hour (AID 1224888); also: nearly all actives have a fitted effect of over 35% in size; also: potency is read from the fitted curve at half-maximal effect; as to activity change: % is scaled to controls: 0 for no effect and ±100 for the full control effect
# Method in brief: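 Fluorescence from a DNA-binding dye excluded by viable cells was measured repeatedly in the same HEK293 wells (600 cells/well) during continuous compound exposure at 37 C. Each assay gives one read point: 0, 8, 16, 24, 32 or 40 h.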
# [8] = biological target: Androgen receptor (Homo sapiens) (UniProt P10275); assay: qHTS assay to identify small molecule antagonists of the androgen receptor (AR) signaling pathway using the MDA cell line in the presence of 0.5 nM R1881 (AID 1259243); also: potency is read from the fitted curve at half-maximal effect; nearly all actives have a fitted effect of over 50% in size
# Method in brief: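 Luminescent reporter readout (ONE-Glo, 30 min, room temperature) after 16 hr co-treatment of MDA-kb2 cells with test compounds and 0.5 nM R1881 final, at 37C without CO2. The MMTV-driven luciferase responds to both AR and GR.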
# [9] = A CellTox Green Cytotoxicity Assay to monitor cytotoxicity in HepG2 cells - 8 hour (AID 1224890); also: nearly all actives have a fitted effect of over 45% in size; also: potency is read from the fitted curve at half-maximal effect
# Method in brief: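 Real-time cytotoxicity: fluorescence of a cell-impermeant cyanine dye binding DNA of dead HepG2 cells, measured repeatedly (0–40 h) during compound exposure at 37 C. Cells seeded 600/well with reagent, dosed after 5 h.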
# [10] = biological target: Estrogen receptor beta (Homo sapiens) (UniProt Q92731); assay: qHTS assay to identify small molecule agonists of the estrogen receptor beta (ER-beta) signaling pathway (AID 1259377; active = well fitted activation curve with a large enough effect in the signal ratio in the repeat runs, not every such curve was filed as active; inconclusive = weak or mixed curves, or effect the other way; the % refers to the signal ratio; also: potency is read from the fitted curve at half-maximal effect; as to activation: % is scaled to controls: 0 for no effect and ±100 for the full control effect); settings: ER-beta-UAS-bla HEK293T, beta-lactamase FRET ratio, 16 h; activation: at 92.4 µM (top of the series) unless noted
# Method in brief: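 A UAS-controlled beta-lactamase reporter in ER-beta-UAS-bla HEK293T cells reports receptor activation. Compounds act for 16 hr at 37C in 2% charcoal-stripped serum, and a FRET substrate is read by fluorescence after 2 hours.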
# [11] = biological target: Estrogen receptor (Homo sapiens) (UniProt P03372); assay: qHTS assay to identify small molecule antagonists of the estrogen receptor alpha (ER-alpha) signaling pathway using the BG1 cell line in the presence of 0.1 nM 17-beta-estradiol (AID 1259244); also: potency is read from the fitted curve at half-maximal effect; nearly all actives have a fitted effect of over 50% in size
# Method in brief: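 Luciferase luminescence (ONE-Glo, 30 min at room temperature) was read after 22 hr at 37C exposure to compounds plus 17beta-estradiol at 0.1 nM final. Cells were VM7Luc4E2 with endogenous ER-alpha and an ERE-driven luciferase, pre-cultured 5 days in hormone-depleted medium.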
# [12] = qHTS assay to identify small molecule phospholipidosis (PLD) inducers (AID 1259344; active = well fitted curve in the direction sought with a large enough effect; inconclusive = small, poorly fitted or top-dose-only effect, or another doubt; inactive = no such curve, though single readings can be large; an effect the other way counts as inactive or inconclusive; also: % is scaled to controls: 0 for no effect and ±100 for the full control effect)
# Method in brief: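 Cells (HepG2, 900 per well) attach for 4 h, receive LipidTOX Red and compound together, incubate 24 h at 37 C, are fixed 30 min with paraformaldehyde/Hoechst, then imaged at one site per well.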
# [13] = qHTS assay to identify small molecule HDAC inhibitors (AID 1259364); also: nearly all actives have a fitted effect of over 45% in size; also: potency is read from the fitted curve at half-maximal effect
# Method in brief: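 Luminescence read after 30 min room-temperature HDAC-Glo incubation measures cellular class I/II HDAC activity. Compounds were applied for 2 hr at 37 C to HCT-116 wild-type cells seeded the day before.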
# Tags tell the direction and shape of the fitted curve or compound fluorescence and quenching.
# Chain of UniProt P10275 (P10275 whole entry, looked up): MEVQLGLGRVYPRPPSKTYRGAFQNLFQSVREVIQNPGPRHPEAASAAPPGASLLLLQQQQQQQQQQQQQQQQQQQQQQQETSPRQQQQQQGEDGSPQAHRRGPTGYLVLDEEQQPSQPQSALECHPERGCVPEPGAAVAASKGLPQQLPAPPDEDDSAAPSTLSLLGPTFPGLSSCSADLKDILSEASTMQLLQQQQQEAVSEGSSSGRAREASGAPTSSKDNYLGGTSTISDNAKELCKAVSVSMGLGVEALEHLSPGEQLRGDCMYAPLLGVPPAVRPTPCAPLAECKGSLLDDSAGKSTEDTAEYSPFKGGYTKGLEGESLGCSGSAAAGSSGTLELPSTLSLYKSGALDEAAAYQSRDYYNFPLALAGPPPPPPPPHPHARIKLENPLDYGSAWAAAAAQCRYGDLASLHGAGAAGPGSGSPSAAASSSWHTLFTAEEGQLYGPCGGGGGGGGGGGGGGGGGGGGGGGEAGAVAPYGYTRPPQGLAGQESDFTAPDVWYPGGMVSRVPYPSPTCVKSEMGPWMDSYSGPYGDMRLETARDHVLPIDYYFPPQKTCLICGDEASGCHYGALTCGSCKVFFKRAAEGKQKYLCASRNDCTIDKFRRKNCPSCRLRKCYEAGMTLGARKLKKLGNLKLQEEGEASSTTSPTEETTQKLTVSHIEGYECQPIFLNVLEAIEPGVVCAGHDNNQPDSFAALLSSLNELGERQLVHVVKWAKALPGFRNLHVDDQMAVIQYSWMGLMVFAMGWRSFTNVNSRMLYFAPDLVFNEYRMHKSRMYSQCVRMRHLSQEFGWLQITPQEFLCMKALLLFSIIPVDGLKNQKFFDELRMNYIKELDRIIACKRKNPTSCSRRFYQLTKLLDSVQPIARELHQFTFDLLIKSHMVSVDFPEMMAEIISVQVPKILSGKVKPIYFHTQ
# Chain of UniProt Q92731 (Q92731 whole entry, looked up): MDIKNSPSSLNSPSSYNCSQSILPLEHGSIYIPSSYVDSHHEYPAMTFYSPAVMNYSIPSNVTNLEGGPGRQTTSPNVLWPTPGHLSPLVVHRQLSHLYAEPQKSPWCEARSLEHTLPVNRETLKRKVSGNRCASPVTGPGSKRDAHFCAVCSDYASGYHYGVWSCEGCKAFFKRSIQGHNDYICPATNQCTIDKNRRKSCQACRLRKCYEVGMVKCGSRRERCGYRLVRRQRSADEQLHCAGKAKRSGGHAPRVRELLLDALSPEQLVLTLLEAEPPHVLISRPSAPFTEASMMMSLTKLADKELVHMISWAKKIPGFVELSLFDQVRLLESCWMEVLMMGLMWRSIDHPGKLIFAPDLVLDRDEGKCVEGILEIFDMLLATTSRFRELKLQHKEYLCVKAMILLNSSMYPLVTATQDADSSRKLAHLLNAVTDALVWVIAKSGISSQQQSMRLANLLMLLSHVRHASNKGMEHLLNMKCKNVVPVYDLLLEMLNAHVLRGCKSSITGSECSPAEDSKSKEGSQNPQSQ
# Chain of UniProt P03372 (P03372 whole entry, looked up): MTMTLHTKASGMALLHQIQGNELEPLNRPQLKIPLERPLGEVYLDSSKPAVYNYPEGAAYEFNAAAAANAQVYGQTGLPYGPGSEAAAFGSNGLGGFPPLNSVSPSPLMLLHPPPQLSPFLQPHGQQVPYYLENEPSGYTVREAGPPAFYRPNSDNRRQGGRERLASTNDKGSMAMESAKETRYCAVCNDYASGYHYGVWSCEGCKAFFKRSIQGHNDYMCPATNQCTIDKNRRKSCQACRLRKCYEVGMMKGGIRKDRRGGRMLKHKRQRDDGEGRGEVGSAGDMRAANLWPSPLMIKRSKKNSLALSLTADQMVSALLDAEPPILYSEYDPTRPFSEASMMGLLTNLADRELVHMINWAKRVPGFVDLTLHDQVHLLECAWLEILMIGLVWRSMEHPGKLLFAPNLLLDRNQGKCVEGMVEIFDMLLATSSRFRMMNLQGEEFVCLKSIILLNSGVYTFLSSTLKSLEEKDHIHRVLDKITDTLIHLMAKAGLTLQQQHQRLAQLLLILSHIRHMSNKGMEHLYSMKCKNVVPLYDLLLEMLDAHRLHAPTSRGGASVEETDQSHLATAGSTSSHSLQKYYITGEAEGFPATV
structure (smiles),measurement,setting,value
O=C1N=C(O)CN1/N=C/c1ccc(-c2ccc([N+](=O)[O-])cc2)o1,Potency,[1],"inconclusive: 24.5 µM [cytotoxic, partial curve]"
same,Potency,[2],"inconclusive: 48.6 µM [cytotoxic, partial curve] and inconclusive: 26.6 µM [cytotoxic, partial curve]"
same,Potency,[3],"inconclusive: 27.3 µM [cytotoxic, partial curve] and inconclusive: 15 µM [cytotoxic, partial curve]"
same,Potency,[4],"inconclusive: 27.3 µM [cytotoxic, partial curve] and inconclusive: 21.1 µM [cytotoxic, partial curve]"
same,Potency,[5],"inconclusive: 27.3 µM [cytotoxic, partial curve] and inconclusive: 29.8 µM [cytotoxic, single point]"
same,Potency,[6],"inconclusive: 38.6 µM [inhibitor, partial curve, poor fit]"
C=Cc1cccc(C)c1,Potency,[7],"inconclusive: 19.5 µM [activator, partial curve, poor fit]"
same,Potency,[6],inactive
CCN(CC)CCOC(=O)C(c1ccccc1)c1ccccc1,Potency,[7],inactive
same,Potency,[6],inactive
O=C(Nc1ccc(C(=O)O)c(O)c1)c1ccccc1,Potency,[1],inactive
CCCC(=O)OCOC(=O)C1=C(C)NC(C)=C(C(=O)OC)C1c1cccc(Cl)c1Cl (centres undefined),Potency,[1],active: 10.7 µM
same,Potency,[8],"inconclusive: 11.9 µM [inhibitor, partial curve, poor fit]"
O=C(OCC(O)CO)c1ccccc1Nc1ccnc2cc(Cl)ccc12 (centres undefined),Potency,[1],"inconclusive: 26.8 µM [cytotoxic, partial curve, poor fit]"
same,Potency,[9],"inconclusive: 10.7 µM [activator, single point]"
same,Potency,[8],"inconclusive: 33.5 µM [inhibitor, single point]"
same,Potency,[5],active: 29.8 µM
same,Potency,[6],active: 7.5 µM
same,Potency,[10],"inconclusive: 18.8 µM [rising, partial curve]"
OC[C@H]1O[C@H](O[C@H]2O[C@H](CO)[C@@H](O)[C@H](O)[C@H]2O)[C@H](O)[C@@H](O)[C@@H]1O,Potency,[1],inactive
CCNc1cc(O)ccc1C,Potency,[7],"inconclusive: 38.5 µM [activator, partial curve]"
same,Potency,[4],"inconclusive: 67.8 µM [cytotoxic, single point]"
same,Potency,[5],"inconclusive: 60.4 µM [cytotoxic, single point]"
same,Potency,[6],"inconclusive: 21.4 µM [inhibitor, full curve, poor fit]"
same,Potency,[10],"inconclusive: 24.1 µM [rising, full curve]"
CCCCCCOC(=O)CC(CC(=O)OCCCCCC)(OC(=O)CCC)C(=O)OCCCCCC,Potency,[1],inactive
same,Potency,[6],inactive
O=Cc1cccc(Br)c1,Potency,[1],inactive
same,Potency,[3],inactive
OCCCCCCCl,Potency,[7],inactive
same,Potency,[6],"inconclusive: 1.42 µM [inhibitor, single point]"
Nc1cc(-c2ccncc2)c[nH]c1=O,Potency,[1],"inconclusive: 43.6 µM [cytotoxic, partial curve]"
CCCCCCCCCCCCCCCCCl,"activity change, negative = cytotoxicity",[1],inactive: -0.916% [at 15.8 µM]
CC1(C)[C@@H](OC(=O)CCC(=O)O)CC[C@]2(C)[C@H]3C(=O)C=C4[C@@H]5C[C@@](C)(C(=O)O)CC[C@]5(C)CC[C@@]4(C)[C@]3(C)CC[C@@H]12,Potency,[7],inactive
same,Potency,[6],"inconclusive: 7.5 µM [inhibitor, single point]"
O=C1c2ccccc2C(=O)c2c(O)c(O)cc(O)c21,Potency,[7],inactive
same,Potency,[2],"inconclusive: 19.3 µM [cytotoxic, partial curve]"
same,Potency,[3],"inconclusive: 34.4 µM [cytotoxic, partial curve]"
same,Potency,[8],"inconclusive: 61.1 µM [inhibitor, partial curve]"
same,Potency,[11],"inconclusive: 61.1 µM [inhibitor, partial curve]"
same,Potency,[4],"inconclusive: 30.6 µM [cytotoxic, partial curve, poor fit]"
same,Potency,[5],"inconclusive: 30.6 µM [cytotoxic, partial curve]"
O=c1[nH]c2cc(C(F)(F)F)c(N3CCOCC3)cc2n(CP(=O)(O)O)c1=O,Potency,[7],inactive
same,Potency,[10],"inconclusive: 3.76 µM [falling, single point]"
CC(=O)OCC(=O)[C@@]1(O)CC[C@H]2[C@@H]3CCC4=CC(=O)CC[C@]4(C)[C@H]3C(=O)C[C@@]21C,Potency,[1],active: 1.07 µM
CCC(=O)c1c(O)cc(O)cc1O,Potency,[7],"inconclusive: 5.35 µM [activator, single point]"
same,Potency,[10],"inconclusive: 29.8 µM [rising, partial curve, poor fit]"
CCN1CCOCC1,Potency,[1],inactive
O=[N+]([O-])c1c(Cl)cc(Cl)cc1Cl,Potency,[7],"inconclusive: 61 µM [activator, single point]"
same,Potency,[6],inactive
C=C(C)C(=O)OCCCCCCCCCC,Potency,[7],"inconclusive: 7.82 µM [activator, single point]"
same,Potency,[2],"inconclusive: 69.1 µM [cytotoxic, single point]"
same,Potency,[11],"inconclusive: 69.1 µM [inhibitor, single point]"
same,Potency,[4],"inconclusive: 69.1 µM [cytotoxic, single point]"
CN1CC(=O)N/C1=N/C(=O)Nc1cccc(Cl)c1,Potency,[7],inactive
same,Potency,[12],inactive
COc1ccc(N)c([N+](=O)[O-])c1,Potency,[7],inactive
same,Potency,[13],"inconclusive: 48.6 µM [inhibitor, partial curve]"
same,Potency,[5],"inconclusive: 54.5 µM [cytotoxic, partial curve, poor fit]"
CC(=O)OCC(C)C,Potency,[7],inactive
same,Potency,[9],inactive
CC(C(=O)O)c1ccc2c(c1)Cc1cccnc1O2 (centres undefined),Potency,[7],inactive
CC/C=C\C/C=C\C/C=C\CCCCCCCC(=O)OCC,Potency,[9],inactive
same,Potency,[3],inactive
same,Potency,[6],"inconclusive: 62.5 µM [inhibitor, single point]"
NC(=O)/N=N/C(N)=O,Potency,[9],inactive
same,Potency,[13],inactive
COc1cc(OC)c2ccc(=O)oc2c1,Potency,[1],"inconclusive: 34.7 µM [cytotoxic, partial curve]"
same,Potency,[6],"inconclusive: 15.4 µM [inhibitor, full curve]"
same,activation,[10],inconclusive: 6.01%
CCOc1ccc2ccccc2c1C(=O)N[C@@H]1C(=O)N2[C@@H]1SC(C)(C)[C@@H]2C(=O)O,Potency,[9],"inconclusive: 26.8 µM [activator, single point]"
NC(=O)NNc1ccccc1,Potency,[9],inactive
CC1(C)O[C@@H]2C[C@H]3[C@@H]4C[C@H](F)C5=CC(=O)C=C[C@]5(C)[C@H]4[C@@H](O)C[C@]3(C)[C@]2(C(=O)CO)O1,Potency,[1],"inconclusive: 4.77 µM [cytotoxic, partial curve]"
same,Potency,[6],inactive
